The values below come from ChEMBL document CHEMBL1201862, “PubChem BioAssay data set” (2004).

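Growth conditions: 96-well plates. Treatment: test compound, 48 hours, 5 concentrations. Analysis: linear interpolation between bracketing concentrations; unreached endpoints set to highest concentration. GI50: concentration for 50% inhibition of growth.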 The source made the active and inactive calls. Cut-off read from the data, not from the text of the source: active = GI50 up to about 1.1 µM and inactive = higher. Where only a bound is given, the exact number is not on record here.

This test deals with NCI-H322M. Nature of the test: DTP human tumour cell line panel, 48 h.
For `CSc1cccc(NC(=O)OC2CCCCCCCCCCC2)c1`, the GI50 was inactive: 24.7 µM.
The value for `COc1cccc(-c2cc(O)c3cc(OC)c(OC)cc3n2)c1` was inactive: 31.1 µM; that for `COc1ccc(-c2cc(O)c3ccc(F)cc3n2)cc1` was inactive: > 100 µM; that for `COc1ccc2oc(C(=O)N3CC(CCl)c4ccc(N)cc43)cc2c1` (stereo not given) was inactive: 1.18 µM.
Turning to `CC1=C(SCc2ccccc2)C(=O)c2ccccc2C1=O`, the GI50 was inactive: 27.3 µM.
The value for `CN(C)Cc1ccc(O)c(CN(C)C)n1` was inactive: > 100 µM; that for `c1ccc(-c2cc(-c3cc(-c4ccccn4)[nH]n3)n[nH]2)nc1` was inactive: 50.8 µM.
With `Cc1cc2c(O)nc(N)nc2nc1C` the figure was inactive: > 100 µM.
With `O=C(O)CCCc1ccc2c(c1)CC1(C2)Cc2ccc(CCCC(=O)O)cc2C1` the figure was inactive: > 100 µM; with `S=C(NN=C1NCCCN1)Nc1ccccc1`, inactive: > 100 µM.
As to `COc1ccc(C2C(Cl)C(=O)N2n2cnc3ccccc3c2=O)cc1OC` (stereo not given), the GI50 is inactive: > 100 µM.
The value for `COC(=O)c1c(C)cc(OC)c(C/C=C(\C)CCCc2coc(C=C(C)C)c2)c1OC` was inactive: > 100 µM.
With `C[C@]12CC[C@H](OC(=O)Cc3ccc(N(CCCl)CCCl)cc3)CC1CC[C@@H]1C2CC[C@]2(C)NC(=O)CCC12` (stereo not given in full) the figure was inactive: 16.2 µM.
The value for `CCOC(=O)c1cn(CC)c2ccc3c(c2c1=O)S(=O)(=O)C=C3` was inactive: > 100 µM; that for `C=CCn1c(-c2ccc([N+](=O)[O-])cc2)csc1=N` was inactive: > 100 µM.
As to `O=C(NN1C(=O)CS(=O)(=O)C1c1cccc(F)c1)c1ccncc1` (stereo not given), the GI50 is inactive: > 100 µM.
On to `Cc1ccc(NC(=O)NC(=O)c2ccc([N+](=O)[O-])cc2[N+](=O)[O-])cc1Oc1ncc(Cl)cn1`, for which the GI50 was active: 0.542 µM.
With `O=c1[nH]c2ccc(C(F)(F)F)cc2nc1Cc1ccccc1` the figure was inactive: > 100 µM; with `COc1ccc2c(c1)CCc1cnn(C3OC(COC(C)=O)C(OC(C)=O)C(OC(C)=O)C3OC(C)=O)c1-2` (stereo not given), inactive: > 100 µM; with `NCCNc1cccc2ccccc12`, inactive: > 100 µM.
`CC(=O)OC12CCCCC1C1(CCCC1)NC2=O` (stereo not given): the GI50 was inactive: > 100 µM.
With `CC(C)OP(=O)(OC(C)C)c1ncn(-c2ccc([N+](=O)[O-])cc2)n1` the figure was inactive: > 100 µM; with `C=C(Cl)C(C)(Cl)CCC(Cl)C(C)(C)Cl` (stereo not given), inactive: > 100 µM.
As to `N#CC(C(=O)C(=O)Nc1ccc(Cl)cc1)c1ccccc1` (stereo not given), the GI50 is inactive: > 100 µM.
With `CC(C)NC(=O)CCN(C(=O)O)S(=O)(=O)c1ccc(NC(=O)c2ccccc2)cc1` the figure was inactive: > 100 µM; with `CC1C2CC(CC2=O)C1(C)C` (stereo not given), inactive: > 100 µM; with `Cc1ccc(Nc2nc(C)c(C(/C=C/c3ccc4c(c3)OCO4)=N/Nc3ccc([N+](=O)[O-])cc3[N+](=O)[O-])s2)c([N+](=O)[O-])c1`, inactive: 62.8 µM.
The value for `C[N+]1(C)CCOC(O)(c2ccccc2)C1` (stereo not given) was inactive: > 100 µM.
With `Cc1cccc2c1c(=O)c1c(O)cc3c(c1n2C)C=CC(C)(C)O3`, the GI50 is inactive: > 100 µM.
With `CC(=O)c1c(-c2cccc3ccccc23)c(C#N)c(=S)n(C2OC(CO)C(O)C(O)C2O)c1C` (stereo not given) the figure was inactive: > 100 µM; with `CCOC(=O)c1sc2c(c1OC(=O)c1ccc(Cl)cc1Cl)c(=O)n(-c1ccccc1)c(=S)n2-c1ccccc1`, inactive: 13.8 µM; with `NC1=C(O)c2cccc3cccc(c23)C1=O`, inactive: > 100 µM.
Take `CC(C)(Cl)C(Cl)CC/C(CBr)=C(\Cl)CCl` (stereo not given): the GI50 was inactive: 15.9 µM.
With `C=CN1C(=O)OC[C@@H]1c1ccccc1` the figure was inactive: > 100 µM; with `COc1ccccc1N1C(=O)CSC1c1c[nH]c2ccccc12` (stereo not given), inactive: > 100 µM; with `CN1CCN(c2nc3c(c(=O)n(C)c(=O)n3C)n2C)CC1`, inactive: > 100 µM.
The value for `Clc1ccc(-c2nn3c(CCCCCCCCc4nnc5sc(-c6ccc(Cl)cc6)nn45)nnc3s2)cc1` was inactive: 8.57 µM; that for `Clc1ccccc1C(n1cc(Br)cn1)n1cc(Br)cn1` was inactive: 3.91 µM; that for `COc1ccc2c(-c3csc(-c4c[nH]c5ccc(Br)cc45)n3)c[nH]c2c1` was inactive: 70.8 µM.
The value for `O=C(CCc1nnc(S)[nH]1)NC12CC3CC(CC(C3)C1)C2` was inactive: > 100 µM; that for `Cc1cn(C2OC(CO[Si](C)(C)C(C)(C)C)C(N(C)O[Si](C)(C)C(C)(C)C)C2[Se]c2ccccc2)c(=O)[nH]c1=O` (stereo not given) was inactive: 10.6 µM.
In the case of `c1ccc2c(c1)nc1n2CCSC1`, the GI50 was inactive: > 100 µM.
With `Oc1nc2c(c(-c3cccc(Cl)c3)n1)COC/C2=C\c1cccc(Cl)c1` the figure was inactive: > 100 µM; with `O=C(CC(=O)C1CCOC1=O)C(=O)Nc1ccc(Cl)cc1` (stereo not given), inactive: > 100 µM; with `CCOC(=O)NC(=O)c1cn(CCN2CCNCC2)c(=O)[nH]c1=O`, inactive: > 100 µM.
With `COc1cc([C@@H]2c3cc4c(cc3[C@@H](NC(=O)c3ccccc3)C3COC(=O)[C@@H]32)OCO4)cc(OC)c1O` (stereo not given in full) the figure was inactive: 12.5 µM.
With `c1ccc(C2CC(NC3CCCCC3)=Nc3ccccc3N2)cc1` (stereo not given) the figure was inactive: 49.8 µM; with `Cc1ccc(NC(=O)CC(=O)n2nc(-c3ccccc3)c(/N=N/c3ccc(Cl)cc3)c2-c2ccccc2)cc1`, inactive: > 100 µM; with `Nn1c(-c2ccccc2)nc2ccc(Br)cc2c1=O`, inactive: 67 µM.
On to `CN1CCN(c2ccc3[nH]c(-c4ccc5[nH]c(CCCc6ccc(N(CCCl)CCCl)cc6)nc5c4)nc3c2)CC1`, for which the GI50 was inactive: > 100 µM.
With `O=C(/C=C/c1ccccc1Cl)NC1C=Nc2ccc([N+](=O)[O-])cc2NC1` (stereo not given) the figure was inactive: > 100 µM.
As for `Cc1[nH]c(=O)[nH]c(=O)c1/C=C/C(=O)NC(CO)C[S+]([O-])Cc1ccccc1` (stereo not given), the GI50 was inactive: > 276 µM.
`CCOc1ccc(NC(=O)C2=C(C)NC(C)=C(C(=O)Nc3ccc(OCC)cc3)C2c2ccccc2)cc1`: the GI50 is inactive: 47.3 µM.
The value for `C1CN(C23OC4(N5CCOCC5)C5C6CC(C7C6C4C72)C53)CCO1` (stereo not given) was inactive: > 100 µM.
The value for `COC(=O)C1=C(C(=O)OC)N(c2ccncc2)C(c2ccco2)=CC1c1ccccc1[N+](=O)[O-]` (stereo not given) was inactive: 8.79 µM; that for `CC1=C(C(=O)NCc2ccccc2)C(c2ccccc2O)C(C(=O)NCc2ccccc2)=C(C)N1` was inactive: 18.3 µM.
On to `O=C(O)C(CS)Nc1c2ccccc2nc2ccccc12` (stereo not given), for which the GI50 was inactive: 80.7 µM.
The value for `O=C1C2C3C=C4c5ccccc5N(c5ccccc5)C4(C2C(=O)N1c1ccccc1)C1C(=O)N(c2ccccc2)C(=O)C31` (stereo not given) was inactive: > 100 µM; that for `COC(=O)C1CCC(=O)N1CN(C(C)=O)c1ccccc1` (stereo not given) was inactive: > 100 µM.
With `O=C1NC(=O)C(C(c2ccc([N+](=O)[O-])cc2)C2C(=O)NC(=O)NC2=O)C(=O)N1` the figure was inactive: > 100 µM.
With `Fc1ccc(C(OCCN2CCC3CCC(C2)N3C/C=C/c2cccs2)c2ccc(F)cc2)cc1` (stereo not given) the figure was inactive: 12.6 µM; with `O=C(O)C1C(C(=O)O)C2C(=O)C=CC1N2Cc1ccccc1` (stereo not given), inactive: 11.5 µM.
Consider `COc1cc(OC)cc(C(=O)NC2=C(Cl)C(=O)c3ccccc3C2=O)c1`, for which the GI50 was inactive: 7.66 µM.
In the case of `CCN(CC)CCNC(=O)c1cc2cc(NC(=O)c3cc4cc([N+](=O)[O-])ccc4[nH]3)ccc2[nH]1`, the GI50 is inactive: 5.37 µM.
With `Cc1ccc(S(=O)(=O)c2c(O)c3ccc(O)c(C)c3oc2=O)cc1`, the GI50 was inactive: > 100 µM.
For `O=S1(=O)C[C@@H](NCc2ccccc2)[C@H](NCc2ccccc2)C1`, the GI50 is inactive: > 100 µM.
The value for `Cc1cc(N(CC(C)Br)CC(C)Br)ccc1/N=N/c1ccccc1C(=O)O` (stereo not given) was inactive: 2.45 µM; that for `CN1CCN(C)C12C=c1ccccc1=CC21CC1` was inactive: 61.5 µM.
Turning to `CCOC(=O)N(NC(=O)NC(C)C)c1ccccc1`, the GI50 is inactive: > 100 µM.
The value for `CN(C)CC1=Nc2cccc3cccc(c23)N1` was inactive: > 100 µM.
With `COc1cc2c3c(cc(Cl)nc3c1OC)C(O)(CC(=O)c1ccccc1)C(=O)N2` (stereo not given) the figure was inactive: 18 µM; with `COc1ccc(-n2c(CCC(=O)O)nc3c2C(=O)c2ccccc2C3=O)cc1`, inactive: > 100 µM; with `C=CC1=CSNN1`, inactive: > 100 µM.
The value for `Nc1ncnc2c1cnn2Cc1ccc(Cl)cc1` was inactive: > 100 µM.
For the compound `COc1cccc(C(NC2=NCCC=N2)c2cc3c(cc2O)OCO3)c1O` (stereo not given), the GI50 was inactive: 43 µM.
The value for `O=C(/N=c1/[nH]/c(=N/C(=O)c2ccccc2)ss1)c1ccccc1` was inactive: 37 µM.
On to `COc1ccc(-c2cc(N3CCN(c4ccccc4)CC3)c(C#N)c(=O)o2)cc1`, for which the GI50 was inactive: 59.8 µM.
With `O=[N+]([O-])c1ccc2nnnn2c1` the figure was inactive: 27 µM; with `CCOC1=C2C(C)(CCC3[C@@]4(C)C=CC(=O)C(C)(C)C4CC(O)[C@@]23C)C(c2ccoc2)C1=O` (stereo not given in full), inactive: 16 µM.
The value for `Nc1ccc(-c2nc3ccccc3s2)cc1I` was inactive: 69.7 µM; that for `CSc1ccc2c(cc1=O)[C@@H](NC(=O)c1cccc([N+](=O)[O-])c1)CCc1cc(O)c(O)c(O)c1-2` was inactive: 33.5 µM; that for `Oc1[nH]c(Nc2ccc(Cl)c(C(F)(F)F)c2)nc2ncnc1-2` was inactive: 38.4 µM.
The value for `O=C(O)CSc1nc2ccccc2[nH]1` was inactive: > 100 µM.
`CN(C)CCn1c(=O)c2ccc(NCCNCCO)c3c(=O)c4cc(O)ccc4n(c1=O)c23`: the GI50 is active: 0.826 µM.
With `O=Cc1coc2ccccc2c1=O` the figure was inactive: > 100 µM.
